{"source": "PubChem BioAssay AID445", "about": "(National Center for Advancing Translational Sciences (NCATS), 2006)", "note": "The whole screen tested about 110,000 compounds, of which about 40 (0.04%) were called active. Inconclusive results, whose numbers are uncertain, are shown with a selection of clear calls. Calls follow the shape of the dose curve; as a rule, active = well fitted curve in the direction sought with a large enough effect in the signal ratio (not every such curve was filed as active); inconclusive = small, poorly fitted or top-dose-only effect, or a change in a side signal; inactive = flat fitted curve, though single readings scatter; the % refers to the signal ratio. Potencies beside an inconclusive call are fits to weak or partial responses and may not hold up. Potency is read from the fitted curve at half-maximal effect.", "data": [{"assay": "IkB Signaling;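 as to IkBa stabilization activation: 0% = basal untreated cells and 100% = reference inhibitor full response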", "settings": "ABC-DLBCL IkBa-CBG/CBR dual luciferase ratio (green luciferase fused to IkBa over red control in OCI-Ly3 lymphoma cells), 4 h; IkBa stabilization activation: at 57.1 µM (top of the series), scaled: untreated 0%, proteasome inhibitor 100% unless noted", "how_it_was_run": "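In this assay, an IκBα–CBG68 fusion accumulates when IKK-driven degradation is blocked; native CBR normalizes for cell number. OCI-Ly3 cells were treated 4 h with compound and doxycycline, then green and red light read after Chroma-Glo addition.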", "values": [{"smiles": "Cc1c(C(=O)NCc2ccc3c(c2)OCO3)oc2ccc(S(=O)(=O)N3CCC(C)CC3)cc12", "IkBa stabilization activation": "inconclusive: 0.586% [signal inhibitor]"}, {"smiles": "COc1ccc(C(CNC(=O)c2oc3cc(C)c(C)cc3c2C)N2CCCCC2)cc1", "note": "(centres undefined)", "IkBa stabilization activation": "inconclusive: -1.56% [signal inhibitor]"}, {"smiles": "Cc1ccc(Nc2nc(N)nc(CSc3nc4ccccc4s3)n2)cc1", "IkBa stabilization activation": "inconclusive: -0.906% [signal inhibitor]"}, {"smiles": "COCCn1c(=O)c(-c2ccc(OC)cc2)nc2cnc(OC)nc21", "IkBa stabilization activation": "inactive: 2.2% [at 11.4 µM, scaled: untreated 0%, proteasome inhibitor 100%]"}, {"smiles": "Cc1c2cnn(CC(=O)NCc3ccc(Cl)cc3)c(=O)c2c(C)n1Cc1ccc(F)cc1", "IkBa stabilization activation": "inconclusive: 0.78% [signal inhibitor]"}, {"smiles": "Cc1nc(CNS(=O)(=O)c2ccc(Oc3ccccc3)cc2)cs1", "IkBa stabilization activation": "inconclusive: 4.12% [signal inhibitor]"}, {"smiles": "Cc1ccccc1Nc1nn2c(=O)c3ccc(C(=O)NCc4cccs4)cc3nc2s1", "IkBa stabilization activation": "inconclusive: -0.954% [signal inhibitor]"}, {"smiles": "COC(=O)c1ccc(OC)c(CSc2nnc(COc3ccccc3)o2)c1", "IkBa stabilization activation": "inconclusive: 5.82% [signal inhibitor]"}, {"smiles": "COc1ccc(OC)c(N(CC(=O)Nc2ccc3c(c2)OCO3)S(=O)(=O)c2ccccc2)c1", "IkBa stabilization activation": "inconclusive: 0.423% [signal inhibitor]"}, {"smiles": "Cc1ccc(S(=O)(=O)N2CCCC(C(=O)NCCc3ccc4c(c3)OCO4)C2)cc1", "note": "(centres undefined)", "IkBa stabilization activation": "inconclusive: 1.24% [signal inhibitor]"}, {"smiles": "CCc1cc(C(=O)COc2ccccc2F)c(O)cc1O", "IkBa stabilization activation": "inconclusive: 5.14% [signal inhibitor]"}, {"smiles": "Cc1ccc(NS(=O)(=O)c2ccc3oc(=O)c4ncn(C)c4c3c2)cc1C", "IkBa stabilization activation": "inconclusive: 1.8% [signal inhibitor]"}, {"smiles": "COc1ccc(CCNc2ncnc3c2cnn3-c2ccc(C)c(Cl)c2)cc1", "IkBa stabilization activation": "inconclusive: 0.363% [signal inhibitor]"}, {"smiles": "COc1ccc(OCC(O)Cn2c(=N)n(CCN3CCCCC3)c3ccccc32)cc1", "note": "(centres undefined)", "IkBa stabilization activation": "inactive"}, {"smiles": "Cc1ccc(-c2cc(-c3ccccc3)c(C#N)c(N)n2)o1", "Potency": "inconclusive: 10 µM [rising, partial curve]"}, {"smiles": "O=C(CCC1N=C2c3ccccc3N=C(SCc3ccc(Cl)cc3)N2C1=O)NCc1cccs1", "note": "(centres undefined)", "IkBa stabilization activation": "inconclusive: -0.883% [signal inhibitor]"}, {"smiles": "CC(=O)/C=C(\\C)Nc1ccc(-c2cnc(-c3ccccc3)o2)cc1", "IkBa stabilization activation": "inactive: 8.18%"}, {"smiles": "CN(C)c1ccc(CNC(=O)CN2C(=O)C3CCCCN3c3ccc(C(=O)N4CCCC4)cc32)cc1", "note": "(centres undefined)", "IkBa stabilization activation": "inconclusive: 1.07% [signal inhibitor]"}, {"smiles": "CC(C)CCNC(=O)C1CCN(S(=O)(=O)c2ccc3c(c2)CCC(=O)N3)CC1", "IkBa stabilization activation": "inactive: 1.67%"}, {"smiles": "Cc1ccc(N2CCN(C(=O)c3cccn4c(=O)c5ccc(Cl)cc5nc34)CC2C)cc1", "note": "(centres undefined)", "IkBa stabilization activation": "inactive: 2.15%"}, {"smiles": "c1ccc2c(c1)nc(NCC1CCCO1)c1nnnn12", "note": "(centres undefined)", "Potency": "inconclusive: 1 µM [signal inhibitor, full curve]"}, {"smiles": "CCN1CCN(C(c2ccccc2Cl)c2c(O)cc(C)n(Cc3ccco3)c2=O)CC1", "note": "(centres undefined)", "IkBa stabilization activation": "inconclusive: 2.76% [signal inhibitor]"}, {"smiles": "Cn1c(=O)c2c(ncn2Cc2ccc(Cl)cc2)n(C)c1=O", "IkBa stabilization activation": "inconclusive: 4.47% [signal inhibitor]"}, {"smiles": "Cc1ccc(S(=O)(=O)N(C)CC(=O)Nc2nc3ccccc3s2)cc1", "IkBa stabilization activation": "inconclusive: 4.09% [signal inhibitor]"}, {"smiles": "Cc1cccc(N2CCN(C(=O)c3noc4c3CCCCC4)CC2)c1C", "IkBa stabilization activation": "inconclusive: -2.29% [signal inhibitor]"}, {"smiles": "COc1ccccc1NC(=O)c1cn(-c2ccccc2)nc1-c1ccccc1", "IkBa stabilization activation": "inconclusive: -0.248% [signal inhibitor]"}, {"smiles": "N#Cc1nc(/C=C/c2ccc(F)cc2)oc1NCc1ccc(F)cc1", "IkBa stabilization activation": "inconclusive: -0.686% [signal inhibitor]"}, {"smiles": "Cc1ccc(-n2c(=O)c3c(C)c(C)sc3n(Cc3ccc(F)cc3Cl)c2=O)cc1C", "IkBa stabilization activation": "inactive: -0.37%"}, {"smiles": "COc1ccc(C(=O)CSc2nnc(-c3cc4ccccc4cc3O)n2Cc2ccco2)cc1", "IkBa stabilization activation": "inconclusive: 6.72% [signal inhibitor]"}, {"smiles": "O=C(O)c1[nH]c2c([N+](=O)[O-])cc([N+](=O)[O-])cc2c1C(=O)O", "IkBa stabilization activation": "inactive: -0.989% [at 11.4 µM, scaled: untreated 0%, proteasome inhibitor 100%]"}, {"smiles": "O=C1CC(=O)Nc2cc(S(=O)(=O)N3CCOc4ccc(Cl)cc43)ccc2N1", "IkBa stabilization activation": "inconclusive: 3.08% [signal inhibitor]"}, {"smiles": "COc1ccc(N2CCN(C(=O)c3cc4c(-c5ccc(Cl)cc5)nn(C)c4s3)CC2)cc1", "IkBa stabilization activation": "inactive: -0.462%"}, {"smiles": "COc1cc(CN(C)CC(=O)c2[nH]c(C)c(C(C)=O)c2C)ccc1OC(F)F", "IkBa stabilization activation": "inconclusive: 11.6% [signal inhibitor]"}, {"smiles": "CCc1c(C)nc(SCC(=O)c2ccc(C)c(C)c2)[nH]c1=O", "IkBa stabilization activation": "inactive: 2.98%"}, {"smiles": "CCCCn1nnc(NC(=O)COc2cc(C)ccc2C(C)C)n1", "IkBa stabilization activation": "inconclusive: 2.04% [signal inhibitor]"}, {"smiles": "COc1ccc2c(CNCCc3cccs3)c(C(=O)O)n(Cc3cccc(F)c3)c2c1", "IkBa stabilization activation": "inconclusive: -0.16% [signal inhibitor]"}, {"smiles": "Cc1ccc(CNC(=O)CN2CCN(Cc3ccc(F)cc3Cl)C2=O)cc1", "IkBa stabilization activation": "inconclusive: 2.1% [signal inhibitor]"}, {"smiles": "O=c1cc(CSc2nc3cc(Cl)ccc3o2)nc2sccn12", "IkBa stabilization activation": "inactive: -1.82%"}, {"smiles": "CCOc1cc(CNC(=O)c2ccc3c(c2)N(C)C(=O)C2CCCCN32)ccc1OC", "note": "(centres undefined)", "IkBa stabilization activation": "inconclusive: 5.71% [signal inhibitor]"}, {"smiles": "Cc1ccc(N2CCN(C(=O)c3cnn(-c4ccc(C)c(C)c4)c3C3CCNCC3)CC2)c(C)c1", "IkBa stabilization activation": "inactive: 1.1%"}, {"smiles": "Cc1ccc(-n2ncc3c(NC4CCCCC4)ncnc32)cc1Cl", "IkBa stabilization activation": "inconclusive: -0.801% [signal inhibitor]"}, {"smiles": "NC(=O)/N=N/C(N)=O", "IkBa stabilization activation": "inactive: 0.141%"}, {"smiles": "Cc1nnc(NC(=O)CCC(=O)N2CCN(CCc3ccccc3)CC2)s1", "Potency": "inconclusive: 12.6 µM [signal inhibitor, partial curve]"}, {"smiles": "COc1ccc(CNC(=O)CCCn2nc(C)c3c(C)n(-c4ccc(C)cc4)nc3c2=O)cc1OC", "IkBa stabilization activation": "inconclusive: 0.452% [signal inhibitor]"}]}]}
